Test results taken from paper PMC4336329 (PLoS ONE, 2015).
Screen size: about 310,000 compounds; about 14,000 (4.5%) showed an effect of 50% or more. The effect is printed as a negative number. The list shows a part of the results.

Target: human ether-à-go-go-related gene (hERG) potassium channel (human, UniProt Q12809)
Assay: primary screen, population patch clamp on CHO cells stably expressing hERG
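Further: peak tail current of the secondary pulse compared with the same well before compound.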

Chain of human ether-à-go-go-related gene (hERG) potassium channel (Q12809 whole entry, looked up): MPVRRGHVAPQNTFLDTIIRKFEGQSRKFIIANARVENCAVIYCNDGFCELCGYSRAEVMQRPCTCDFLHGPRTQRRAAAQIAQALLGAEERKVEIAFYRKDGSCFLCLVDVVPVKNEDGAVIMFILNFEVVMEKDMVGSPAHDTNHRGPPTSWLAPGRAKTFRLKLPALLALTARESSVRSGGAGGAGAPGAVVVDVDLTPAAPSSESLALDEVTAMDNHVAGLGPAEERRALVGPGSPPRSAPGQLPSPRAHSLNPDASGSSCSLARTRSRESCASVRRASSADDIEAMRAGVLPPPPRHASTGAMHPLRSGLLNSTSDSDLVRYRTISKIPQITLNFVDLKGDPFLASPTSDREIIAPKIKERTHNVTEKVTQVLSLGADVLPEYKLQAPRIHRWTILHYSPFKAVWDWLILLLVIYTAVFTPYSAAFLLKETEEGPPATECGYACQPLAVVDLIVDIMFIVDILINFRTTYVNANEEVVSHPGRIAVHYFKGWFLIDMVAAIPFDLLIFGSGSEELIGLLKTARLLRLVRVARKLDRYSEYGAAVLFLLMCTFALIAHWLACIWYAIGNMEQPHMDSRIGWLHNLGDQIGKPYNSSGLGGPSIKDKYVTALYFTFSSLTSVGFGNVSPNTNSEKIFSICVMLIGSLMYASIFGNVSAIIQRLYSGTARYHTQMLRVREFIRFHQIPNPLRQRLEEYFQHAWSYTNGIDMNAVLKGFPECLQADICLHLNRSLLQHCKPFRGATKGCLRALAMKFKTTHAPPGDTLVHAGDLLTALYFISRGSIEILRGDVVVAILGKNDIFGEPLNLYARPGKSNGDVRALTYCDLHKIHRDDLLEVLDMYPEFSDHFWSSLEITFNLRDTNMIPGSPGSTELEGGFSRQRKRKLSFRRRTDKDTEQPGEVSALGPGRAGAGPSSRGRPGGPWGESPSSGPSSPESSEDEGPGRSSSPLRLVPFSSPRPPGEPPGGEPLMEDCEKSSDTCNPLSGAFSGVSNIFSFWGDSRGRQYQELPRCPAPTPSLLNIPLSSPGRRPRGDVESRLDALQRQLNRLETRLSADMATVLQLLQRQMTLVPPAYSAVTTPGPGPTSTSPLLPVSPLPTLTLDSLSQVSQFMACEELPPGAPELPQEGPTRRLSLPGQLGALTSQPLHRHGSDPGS

Structure (SMILES) | hERG current change (%, negative = inhibition) at 10uM
COc1ccc2c(c1)C1(C)CC(C)(C)N2C(=O)N1c1ccccc1 (centres unmarked) | 4.35%
Cc1ccc(S(=O)(=O)N(C)c2ccc(C(=O)Nc3cccnc3)cc2)cc1 | 8.9%
C/C(CC(=O)Nc1ccc(Cl)c(Cl)c1)=N\NC(N)=S | 19.3%
CCC12C(=O)C(CC)(C(c3ccccc3)=C1c1ccccc1)[C@@H]1C(=O)N(c3ccccc3)C(=O)C12 (some centres unmarked) | 5.32%
NC(=O)CSc1nnc(C2CC2)n1-c1ccccc1 | 20.9%
COC(=O)CCc1c(C)nn(-c2ccccc2)c1C | -1.68%
CCc1c(C)nc(N2CCN(c3ccccc3)CC2)[nH]c1=O | 12.6%
O=C(NN1C(=O)/C(=C/c2cc([N+](=O)[O-])ccc2O)SC1=S)c1ccccc1O | 10.2%
O=C(Nc1ccc(N2CCN(C(=O)c3ccccc3)CC2)c(Cl)c1)c1cccnc1 | -31.2%
Cc1cc(Cl)c(S(=O)(=O)Nc2cc(S(=O)(=O)N3CCOCC3)ccc2F)cc1OCC(N)=O | 1.02%
Cc1csc(SCC(=O)NCCc2ccc(Cl)cc2)n1 | -11.4%
CC(C)Cn1c(-c2cc([N+](=O)[O-])ccc2Cl)nc2c1c(=O)[nH]c(=O)n2Cc1ccccc1 | -2.61%
O=C(/C=C/c1c(F)cccc1Cl)NCc1ccco1 | 2.45%
COc1ccc(CNCC(O)(c2ccccc2)c2ccc(Cl)cc2)cc1 (centres unmarked) | -68.8%
C1CCCCCC(=NNc2nn[nH]n2)CCCCC1 | 8.75%
Cc1cc(C)nc(Nc2cccc3ccccc23)n1 | 12.3%
COc1ccccc1NS(=O)(=O)c1ccc(NN=C2CCCCC2)c([N+](=O)[O-])c1 | 9.59%
O=C(Nc1c(F)c(F)c(F)c(F)c1F)NC1CCCCC1 | -11.1%
CCOC(=O)c1sc2cccc(F)c2c1N | -11%

Structure (SMILES) | hERG current change (%, negative = inhibition) at 10uM
CCO[C@H]1OC(C(N)=O)=C[C@@H](C)[C@@H]1CCCO | 12.9%
CNC(=S)N(C)CCc1cc2c(c(OC)c1/C=C1/C(=O)NC(=O)N(C)C1=O)OCO2 | 14.4%
O=C(NCc1ccc(F)cc1)c1cc2n(n1)C(C(F)(F)F)CC(C1CC1)N2 (centres unmarked) | 1.61%
CC(C)NS(=O)(=O)c1ccc(CCC(=O)NCc2ccc3c(c2)OCO3)cc1 | -1.6%
Cn1c(COc2ccccc2)nnc1SCC(=O)c1cccc([N+](=O)[O-])c1 | 1.08%
Cc1cccc(OCCCCCN2CCOCC2)c1C | 7.01%
Cc1cc2ccccn2c1C(=O)c1ccc(S(=O)(=O)N(C)C)cc1 | 1.85%
CCC(NC(=O)CSc1nnnn1C1CC1)c1ccc(Br)cc1 (centres unmarked) | -17%
COc1ccccc1CNc1n[nH]c(NCc2ccccc2OC)n1 | 0.0961%
COc1cccc(-c2cc(C(=O)N3CCN(S(=O)(=O)c4ccccc4)CC3)[nH]n2)c1 | -19.1%
O=C(Nc1nnc(-c2ccccc2Cl)o1)c1ccc(S(=O)(=O)N2CCCCCC2)cc1 | 4.58%
CCOc1cc(/C=C\[N+](=O)[O-])ccc1OCC(=O)N1CCOCC1 | -50.5%
CCN1CCN(c2cc(C)c3cc(NC(=O)c4ccncc4)ccc3n2)CC1 | -21.4%
COc1ccc(-c2cc(C(F)(F)F)nc(SCCC(=O)NCc3ccccc3)n2)cc1 | -14.5%
Cc1ccc(CNC(=O)COC(=O)c2cnccn2)cc1 | -5.05%
COc1ccccc1NC(=O)C1=C(C)Nc2nc3ccccc3n2C1c1cccs1 (centres unmarked) | -9.35%
Cc1cc(-c2ccc(C(C)C)c(S(=O)(=O)Nc3ccccn3)c2)on1 | 10.6%
CCOC(=O)N1CCC(N2C(=O)c3ccc(C(=O)NCCC(C)C)cc3C2=O)CC1 | -7.32%
S=C(NCCNC(=S)Nc1ccccc1Cl)Nc1ccccc1Cl | 6.08%

Structure (SMILES) | hERG current change (%, negative = inhibition) at 10uM
Cc1ccc(OCCCn2c(=O)sc3ccccc32)cc1 | 9.85%
CN1CC(C(=O)c2ccccc2)C(c2ccccc2)C1 (centres unmarked) | -5.47%
CC1CN(CC(=O)NCc2ccc(F)cc2)CC(C)O1 (centres unmarked) | 7.79%
Cc1cc(NCCOCCO)n2ncc(-c3ccc(Cl)cc3)c2n1 | -7.88%
CCOc1ccc(-c2[nH]nc3c2C(c2ccc4c(c2)OCO4)C(C#N)=C(N)O3)cc1OC (centres unmarked) | -14.7%
O=c1n(-c2ccccc2)c(=O)n2n1CCC2 | 4.46%
CCCCCCC(=O)Nc1ccc(S(=O)(=O)Nc2onc(C)c2C)cc1 | 13.6%
CC1CCCCC1NC(=O)COC(=O)Cc1ccc(Br)cc1 (centres unmarked) | 26.3%
CCOc1ccc(CNS(=O)(=O)c2cc(CN3C(=O)c4cccnc4C3=O)ccc2OC)cc1 | -0.0578%
Cc1nn(Cc2ccc([N+](=O)[O-])cc2)c(=O)n1-c1ccccc1 | -15.1%
CCOC(=O)c1c(N)sc(C(=O)Nc2ccc3c(c2)OCO3)c1C | -15.6%
CNC(=O)NC(=O)CSc1nc2ccccc2n1CCOC | -0.841%
O=C(NC1CCCC1)C(c1ccncc1)N(C(=O)c1csnn1)c1cccc(F)c1 (centres unmarked) | 17.2%
Cc1cc(C)nc(Nc2ncc(O)n2-c2ccc(C)c(Cl)c2)n1 | -2.3%
c1ccc(CN2CCN(c3nc4ccccc4s3)CC2)cc1 | 11.8%
COc1cc(CNCc2ccccc2C(F)(F)F)cc(OC)c1.O=C(O)C(=O)O | 22.7%
CCCCOc1ccccc1C1NC(=O)CCC1[N+](=O)[O-] (centres unmarked) | 3.86%
CCC1Sc2ccc(S(=O)(=O)CCC(=O)N3CCc4ccccc43)cc2NC1=O (centres unmarked) | 6.88%
